Test results reported in PubChem BioAssay AID1508624 (National Center for Advancing Translational Sciences (NCATS), 2021).
Out of some 48,000 compounds screened, about 120 (0.25%) were called active. Inconclusive results (about 4%) are left out. The call rests on the fitted dose curve; in most records, active means well fitted activation curve with a large enough effect; inconclusive means small, poorly fitted or top-dose-only effect, or another doubt; inactive means no such curve, though single readings can be large or run the other way. This is one part of the list.

Experiment: Primary qHTS for Identification of Small Molecule Activators of Huntingtin-Antisense Promoter Activity; further: nearly all actives have a fitted effect of over 55% in size
Conditions: HEK293 HTT-AS promoter firefly luciferase reporter, 24 h; series mostly up to 57.5 µM; activity change, positive = activation: at the top concentration
Outline: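 Firefly luciferase signal from promoter-reporter HEK293 cells was scaled between vehicle (0%) and zero RLU (-100%). Compounds were tested at final concentrations of up to 57.5 uM over 24 h at 37 degrees C. PTC124 at 50 uM final served as control inhibitor.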

Activity change, positive = activation, inactive:
COC(=O)c1ccc(CNC(=O)c2nc(Cn3nc(C)c(Br)c3C)no2)cc1 -17%, COc1cc2c(cc1OC)C(COc1cc(C)cc(C)c1)N(C(=O)c1ccc(S(=O)(=O)N3CCCC3)cc1)CC2 (centres undefined) -18.4%, O=C(CSc1nc2c([nH]c3ccccc32)c(=O)n1-c1cccc(Cl)c1)NCc1ccccc1 -32.9%, CCc1nnc(NC(=O)CSc2nc3c([nH]c4ccccc43)c(=O)n2-c2ccc(C)cc2)s1 -25.6%, CCc1nc2ccc(C(=O)N3CCN(c4cccc(OC)c4)CC3)cc2nc1CC -4.74%, Cc1ccc(C)c(-c2ccc(=O)n(Cc3ccc(F)cc3Cl)n2)c1 -39.1%, CCOC(=O)C1CCCN(C(=O)Cn2ncc3c4ccccc4n(Cc4ccc(F)cc4)c3c2=O)C1 (centres undefined) -16.4%, O=C(COc1ccccc1)Nc1sc2c(c1C(=O)Nc1ccccc1)CCCCC2 10.3%, CN(C)N=Nc1nc[nH]c1C(N)=O -16.3%, CCN(CC)S(=O)(=O)c1ccc2c(c1)N(CC(=O)NCc1ccc(F)cc1)C(=O)CO2 -10.2%, Cc1cc(N2CCN(c3cccc(C(F)(F)F)c3)CC2)n2nc(-c3ccccc3C)nc2n1 1.3%, Cc1ccc2oc(=O)c3cnn(CC(=O)N4CCN(c5cccc(C(F)(F)F)c5)CC4)c3c2c1 -0.464%, CCC(C)NC(=O)CSc1nc2c(sc3ccccc32)c(=O)n1CCc1ccccc1 (centres undefined) -5.24%, O=S(=O)(c1cccc(C(F)(F)F)c1)N1CCC(Oc2ccc(-n3cnnn3)cc2)CC1 -47.1%, COc1ccc(NC(=O)C2=C(C)Nc3c(C(=O)Nc4ccc(C)cc4)cnn3C2c2cc(OC)ccc2OC)cc1 (centres undefined) -2.63%, COc1cccc(NC(=O)Cn2c(=O)n(Cc3ccccc3)c(=O)c3c2c2cc(C)ccc2n3C)c1 -4.95%, O=C(Nc1ccc([N+](=O)[O-])cc1Cl)c1cc(Cl)ccc1O -88.8%, O=C(Nc1cccnc1)N1CCC(Cc2cccc(Oc3ccc(C(F)(F)F)cn3)c2)CC1 -77.9%, CCCN1CCc2nc(SCC(=O)Nc3ccc(C)c(Cl)c3)[nH]c(=O)c2C1 13%, CN(C)c1ccc(C2CC(c3c(O)n(C4CCCCC4)c(=O)[nH]c3=O)=Nc3ccccc3S2)cc1 (centres undefined) -61.7%, O=C(Nc1ccccc1C(F)(F)F)Nc1c[nH]c(=O)[nH]c1=O -1.47%, COc1ccc(Nc2c(-c3ccco3)nc3cccc(C)n23)cc1 -19.3%, CCN(CC)CC(=O)Nc1c(C)cccc1C(=O)OC -9.53%, Cc1ccc2c(C)c(C(=O)N3CCC(c4nc5ccccc5s4)CC3)oc2c1C 6.98% [at 11.5 µM, percent change from vehicle, -100% = no light], COc1cc(OC)c(OC)cc1CN1CCc2nc(N3CCN(c4ccccc4F)CC3)ncc2C1 -44.2%, COc1ccc(C2C=C(c3ccccc3)Nc3nc(NS(=O)(=O)c4ccc(C)cc4)nn32)cc1 (centres undefined) -12.7%, Cc1c(C(=O)OC2CCCCC2)[nH]c2c1C(=O)CC(c1ccccc1)C2 (centres undefined) -23.4%, Cc1ccc(OCC(=O)N(Cc2ccc(Cl)cc2)CC2CCCO2)cc1C (centres undefined) -28.1%, Cc1cc(F)ccc1NC(=O)C(C(C)C)N1Cc2ccccc2C1=O (centres undefined) 1.8%, COc1ccccc1NC(=O)c1nnn(-c2ccc(F)cc2)c1C -3.12%, COc1ccc(CNC(=O)c2ccc3c(c2)N(Cc2ccccc2)C(=O)c2ccccc2S3=O)cc1 (centres undefined) -15.5%, CC(=O)Nc1ccc(S(=O)(=O)NC2=NCN(C(C)C)CN2)cc1 -13.9%, COc1ccc(C(=O)N2CC(=O)Nc3ccc(C)cc3C2c2ccc(F)cc2)c(OC)c1 (centres undefined) -12.2%, CN(CC(=O)NCc1ccccc1Cl)S(=O)(=O)c1ccc2c(c1)c(=O)n(C)c(=O)n2C -16.1%, Cc1ccc(Cl)cc1N1CCN(C(=O)Cc2c(C(=O)O)c(C)cn2C)CC1 -17.1%, Cc1sc2ncn(CC(=O)N3CCN(c4ccccc4F)CC3)c(=O)c2c1S(=O)(=O)N1CCN(c2ncccn2)CC1 -10.2%, O=c1c(-c2cc(-c3ccc(Cl)cc3)nc3c2COc2ccccc2-3)coc2ccccc12 0.961%, CCC(=O)N1CCc2cc(Br)cc(S(=O)(=O)CCC(=O)NCCc3ccc(C)cc3)c21 -10%, CCOc1ccc(C(=O)N2CCC(c3nc(-c4ccc(S(=O)(=O)N5CCCC5)cc4)no3)CC2)cc1 -24.4%, c1ccc(CSc2nnc(C3CCNCC3)o2)cc1 -1.48%, COC(=O)c1ccc(NC(=O)CCn2cccn2)cc1 14.4%, O=c1[nH]c2ccc(NCc3ccc(-c4ccccc4F)o3)cc2[nH]1 -60.1%, CCOc1ccc(Cc2nccc3cc(OCC)c(OCC)cc23)cc1OCC -52.8%, Cc1ccc(C(C)C)c(OCC(=O)Nc2cccc(-c3nc4ncccc4o3)c2)c1 -27.9%, CCOc1ccc(NC(=O)N(Cc2ccc(CC)cc2)Cc2cn[nH]c2-c2ccc(OC)cc2)cc1 -20.1%, CCOc1ccc(-c2cc3c(=O)n(Cc4nc(-c5ccc(OC)cc5OC)oc4C)ccn3n2)cc1Cl 24.9%, COc1cccc(Oc2nc3c(c(=O)n(Cc4ccccc4Cl)c(=O)n3C)n2C)c1 0.327%, CCOc1ccc(C(=O)c2cn(CC(=O)Nc3cc(OC)ccc3OC)c3cc(OC)c(OC)cc3c2=O)cc1 -19.3%, COc1ccc(-c2ccc(=O)n(CC(=O)NCCc3ccccc3)n2)cc1 -8.99%, O=C(O)c1cccnc1, CCc1ccc(OCCSc2nc(-c3cccc(C)c3)nc3cc(=O)[nH]n23)cc1 11.6%, COc1ccc(NC(=O)CCSc2nc(-c3ccco3)cc(C(F)(F)F)n2)cc1OC 4.63% [at 11.5 µM, percent change from vehicle, -100% = no light], O=C(CN1C(=O)C2(SCC(=O)N2c2ccc(F)cc2)c2ccccc21)NCCc1ccccc1 (centres undefined) -14.7%, COc1ccc(NCc2nnc3n2CCCCC3)c(OC)c1 -16.8%, Cc1cc(C)cc(Nc2cc(C(=O)NCc3ccccc3)c3ccccc3n2)c1 -16.8%, CCOc1cc(CNCCSc2nnnn2-c2ccccc2)ccc1OC -11.8%, CCOC(=O)C1CCN(C(c2ccc(F)cc2)c2sc3nc(-c4ccco4)nn3c2O)CC1 (centres undefined) -6.65%, Cc1cc(C)c(NC(=O)C(C)n2nnc3sc(-c4ccccc4)cc3c2=O)c(C)c1 (centres undefined) 7.43%, CNC(=O)C1CCC(Cn2c(=O)c3sccc3n(CC(=O)Nc3cc(F)ccc3F)c2=O)CC1 (centres undefined) -18%
